# The list shows a part of the results.
# B1: PX14343B-bfa-546-20-546 (Bacteroides fragilis) (protein)
# chain: CDLERYPLTDLSEETFWNSESNAELALTSLYRGSLTDGVEYNPSDWWSYHGMIMMEHLSDNAFDRRGENNPFFKISSGNLTADNAFIKRYWETSYKRIGYCNRFLVGIQNSSESEKKTRMIAEARFLRATQYFYLASYFKNVPLVENVLTGEEANNVTKTSQADILKWCVTEFTAAAADLPRFSAIPAGEAGRACKQAALAFLGRTCMLQKDWKSGAKAFHDIMELGDNAINANYQELFYPSTGTSNKENIFYIQYLENYLGTGLPQHALSAKDGGWSLVNPAADLYESYEFKDGTPFSYDDPRYDPSNLGKDRDPRLDYTIYYNGAIFMGTEYKMSPDYSAAKKEKLDYTSEASRTGFMMRKYFEESTPINDVQSANGLTPVIRYAEVLLGYLECLVEDNQTITQGILDETINAVRGRASVNMPPVTEVTPAKLREIVRHERRIELAMEGIRYWDIMRWGIAHEVLSQKIWGAPYPGSTQYATTTKEVDPTGNYRWYVGKRAFRNPTDYTWPIPQSEQNINPNLRD
# Columns and labels:
# Assay in all cases: glycan array binding signal (z-score within array); higher = stronger binding
# Conditions in all cases: glycan notation: IUPAC condensed, linker removed
# [1] = molecular target: Fuc(a1-2)Gal
# Outline: (§1)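 The Consortium for Functional Glycomics database supplied 3228 glycan arrays, of which those lacking an available protein sequence were dropped. The binding signal, a within-array Z-score, was averaged across arrays of the same protein sequence and across linkers. Negative scores can be read as non-binding.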
# [2] = molecular target: Fuc(a1-2)Gal(b1-3)GalNAc
# Outline: as §1
# [3] = molecular target: Fuc(a1-2)Gal(b1-3)GalNAc(a1-3)[Fuc(a1-2)]Gal(b1-4)Glc
# Outline: as §1
# [4] = molecular target: Fuc(a1-2)Gal(b1-3)GalNAc(a1-3)[Fuc(a1-2)]Gal(b1-4)GlcNAc
# Outline: as §1
# [5] = molecular target: Fuc(a1-2)Gal(b1-3)GalNAc(b1-3)Gal
# Outline: as §1
# [6] = molecular target: Fuc(a1-2)Gal(b1-3)GalNAc(b1-3)Gal(a1-4)Gal(b1-4)Glc
# Outline: as §1
# [7] = molecular target: Fuc(a1-2)Gal(b1-3)GalNAc(b1-4)[Neu5Ac(a2-3)]Gal(b1-4)Glc
# Outline: as §1
# [8] = molecular target: Fuc(a1-2)Gal(b1-3)GlcNAc
# Outline: as §1
# [9] = molecular target: Fuc(a1-2)Gal(b1-3)GlcNAc(b1-2)Man(a1-3)[Fuc(a1-2)Gal(b1-3)GlcNAc(b1-2)Man(a1-6)]Man(b1-4)GlcNAc(b1-4)GlcNAc
# Outline: as §1
# [10] = molecular target: Fuc(a1-2)Gal(b1-3)GlcNAc(b1-2)Man(a1-3)[Fuc(a1-2)Gal(b1-3)GlcNAc(b1-2)Man(a1-6)]Man(b1-4)GlcNAc(b1-4)[Fuc(a1-6)]GlcNAc
# Outline: as §1
# [11] = molecular target: Fuc(a1-2)Gal(b1-3)GlcNAc(b1-3)Gal(b1-4)Glc
# Outline: as §1
# [12] = molecular target: Fuc(a1-2)Gal(b1-3)GlcNAc(b1-3)GalNAc
# Outline: as §1
# [13] = molecular target: Fuc(a1-2)Gal(b1-3)GlcNAc(b1-3)[Fuc(a1-2)Gal(b1-3)GlcNAc(b1-6)]GalNAc
# Outline: as §1
# [14] = molecular target: Fuc(a1-2)Gal(b1-3)GlcNAc(b1-3)[Gal(b1-4)GlcNAc(b1-6)]Gal(b1-4)Glc
# Outline: as §1
# [15] = molecular target: Fuc(a1-2)Gal(b1-3)GlcNAc(b1-3)[Neu5Ac(a2-6)Gal(b1-4)GlcNAc(b1-6)]Gal(b1-4)Glc
# Outline: as §1
# [16] = molecular target: Fuc(a1-2)Gal(b1-3)GlcNAc6S
# Outline: as §1
# [17] = molecular target: Fuc(a1-2)Gal(b1-3)[Fuc(a1-4)]GlcNAc
# Outline: as §1
# [18] = molecular target: Fuc(a1-2)Gal(b1-3)[Fuc(a1-4)]GlcNAc(b1-2)Man(a1-3)[Fuc(a1-2)Gal(b1-3)[Fuc(a1-4)]GlcNAc(b1-2)Man(a1-3)]Man(b1-4)GlcNAc(b1-4)GlcNAc
# Outline: as §1
# [19] = molecular target: Fuc(a1-2)Gal(b1-3)[Fuc(a1-4)]GlcNAc(b1-2)Man(a1-3)[Fuc(a1-2)Gal(b1-3)[Fuc(a1-4)]GlcNAc(b1-2)Man(a1-6)]Man(b1-4)GlcNAc(b1-4)[Fuc(a1-6)]GlcNAc(b1-4)[Fuc(a1-6)]GlcNAc
# Outline: as §1
# [20] = molecular target: Fuc(a1-2)Gal(b1-3)[Fuc(a1-4)]GlcNAc(b1-3)[Fuc(a1-3)[Gal(b1-4)]GlcNAc(b1-6)]Gal(b1-4)Glc
# Outline: as §1
# [21] = molecular target: Fuc(a1-2)Gal(b1-3)[Fuc(a1-4)]GlcNAc(b1-3)[Gal(b1-4)GlcNAc(b1-6)]Gal(b1-4)Glc
# Outline: as §1
# [22] = molecular target: Fuc(a1-2)Gal(b1-4)Glc
# Outline: as §1
# [23] = molecular target: Fuc(a1-2)Gal(b1-4)Glc6S
# Outline: as §1
# [24] = molecular target: Fuc(a1-2)Gal(b1-4)GlcNAc
# Outline: as §1
# [25] = molecular target: Fuc(a1-2)Gal(b1-4)GlcNAc(b1-2)Man
# Outline: as §1
# [26] = molecular target: Fuc(a1-2)Gal(b1-4)GlcNAc(b1-2)Man(a1-3)[Fuc(a1-2)Gal(b1-4)GlcNAc(b1-2)Man(a1-6)]Man(b1-4)GlcNAc(b1-4)GlcNAc
# Outline: as §1
# [27] = molecular target: Fuc(a1-2)Gal(b1-4)GlcNAc(b1-2)Man(a1-3)[Fuc(a1-2)Gal(b1-4)GlcNAc(b1-2)Man(a1-6)]Man(b1-4)GlcNAc(b1-4)[Fuc(a1-6)]GlcNAc
# Outline: as §1
# [28] = molecular target: Fuc(a1-2)Gal(b1-4)GlcNAc(b1-2)[Fuc(a1-2)Gal(b1-4)GlcNAc(b1-4)]Man(a1-3)[Fuc(a1-2)Gal(b1-4)GlcNAc(b1-2)Man(a1-6)]Man(b1-4)GlcNAc(b1-4)GlcNAc
# Outline: as §1
# [29] = molecular target: Fuc(a1-2)Gal(b1-4)GlcNAc(b1-3)Gal(b1-4)GlcNAc
# Outline: as §1
# [30] = molecular target: Fuc(a1-2)Gal(b1-4)GlcNAc(b1-3)Gal(b1-4)GlcNAc(b1-2)Man(a1-3)[Fuc(a1-2)Gal(b1-4)GlcNAc(b1-3)Gal(b1-4)GlcNAc(b1-2)Man(a1-6)]Man(b1-4)GlcNAc(b1-4)GlcNAc
# Outline: as §1
binder,measurement,setting,value
B1,glycan array binding signal (z-score),[1],-0.114
same,glycan array binding signal (z-score),[2],-0.122
same,glycan array binding signal (z-score),[3],-0.123
same,glycan array binding signal (z-score),[4],-0.115
same,glycan array binding signal (z-score),[5],-0.117
same,glycan array binding signal (z-score),[6],-0.124
same,glycan array binding signal (z-score),[7],-0.122
same,glycan array binding signal (z-score),[8],-0.118
same,glycan array binding signal (z-score),[9],-0.099
same,glycan array binding signal (z-score),[10],-0.078
same,glycan array binding signal (z-score),[11],-0.122
same,glycan array binding signal (z-score),[12],-0.107
same,glycan array binding signal (z-score),[13],-0.126
same,glycan array binding signal (z-score),[14],-0.107
same,glycan array binding signal (z-score),[15],-0.125
same,glycan array binding signal (z-score),[16],-0.12
same,glycan array binding signal (z-score),[17],-0.133
same,glycan array binding signal (z-score),[18],-0.098
same,glycan array binding signal (z-score),[19],-0.114
same,glycan array binding signal (z-score),[20],-0.123
same,glycan array binding signal (z-score),[21],-0.116
same,glycan array binding signal (z-score),[22],-0.115
same,glycan array binding signal (z-score),[23],-0.118
same,glycan array binding signal (z-score),[24],-0.121
same,glycan array binding signal (z-score),[25],-0.127
same,glycan array binding signal (z-score),[26],-0.117
same,glycan array binding signal (z-score),[27],-0.108
same,glycan array binding signal (z-score),[28],-0.123
same,glycan array binding signal (z-score),[29],-0.123
same,glycan array binding signal (z-score),[30],-0.107
